According to article doi:10.1101/2024.11.05.621662 (bioRxiv, 2024):

Target: the molecule itself
Test: cryo-EM structure

B1: amino-terminal half of TFG ([…]) (domain or fragment)
chain: not shown
stoichiometry N: 8
